Here are results for 29 molecules from the supplement of paper PMC12632987.

First the molecules themselves.
B1: LC3A_free_26_2137 (protein)
chain: SEYIDIALLDEAEELLEKLAKELKKAGPEYKELAEKAEEALKLLEEETLESLKKAKEILEEMIKELKKLLKKDPKFMEEQLKKAEEALELVEEIIKIMES
B2: LC3A_free_39_2208 (protein)
chain: SEEELEKLIKKVAEAGGIDYEYVKKKVEEIQKVAGLTIEQMKEIVEAILKAVEAGADAKEILEEILKIAKELKAAGKTPEEIKEAILETIRDFENLVPLD
B3: LC3A_45_1961 (protein)
chain: MAEAVVLVLVPREEFDRVVAIIREEIERINKEEGLEASVDEEALAAAREEAEREGEGLVEVTIKSEDLNKALDAADRISDRVAERSSPRVATIIEYAEEP
B4: LC3A_45_1996 (protein)
chain: MAKVTIDVYGDGKAVKAFLELVKKRIEELVKKEGLNLKVDEEALEKELKRAEKEEEVSATLTIYSDATQEAIDAILDAIDAAQKEVGPSVSYIISIEDLP
B5: LC3A_3_1861 (protein)
chain: MDEIIEEILKLLKELGRSEETIEKARELAEALKERGYLEALKTLLEKLKELKDVSDEILLDMFEDLLEALKTEDLSEEELIKKIKEEARIALSEHEIEEL
B6: LC3A_28_833 (protein)
chain: SAVDARIAAFLAAAEATKAAGEPGTITMTITSTDTVEEVERLAAAIREAAELISSVPNQSIIVDLDGPISQEKLDILMATADEIEEKYPNVSVIIALPEE
B7: LC3A_free_8_2494 (protein)
chain: NSQKLVDAAVEGLSKMEEELTEKAKKLGADRLDILDLELLIGSAIAEAISLVDESPEKILEAVKESLKEIIEEAKKISEELAKLAEKLSKEILEKLEKLI
B8: LC3A_28_937 (protein)
chain: MTVEEQIEKAIKEAEEAKKEGKPAVITLTLRGDDTQEDVELIIEGIEKIAEILKDIKGSAIIVDVEAGVPQEHIDLIADKGEEIEKKYPNINVIIALDED
B9: LC3A_141_387 (protein)
chain: MKKTFKHTADTDTEQDIFAFFDEVEKELKKMIKESGGKPVKVKVTLKGTNPETGEVVTVKEEFTVTEENVDEAVSGMEIEAVSLLDKVGGTIDITVELEV
B10: LC3A_28_1135 (protein)
chain: SAGVEEAKKQIDKDAERDKNEEEAFLNVTIKSTATVEEAREIMDHVEEEVEKLKHKKKIYVVVTFEEPVSQEVLDTVVEKGEEIEKKFPNVSVVIALPEE
B11: LC3A_free_46_2400 (protein)
chain: YKGIIEIDALFDTKEKGEAFAKDVEKAAKELAEKYGVEIEIEVEIEEEPDGTVFVTIKITARAEDKETLEAFVNDLIDKIEEIAEKYNASVIISYEIEEE
B12: LC3A_3_1363 (protein)
chain: TEALIEATLAALRAAGKSEETIAAVREAMTALAEKGYEEALKVFAEELLAMADLPDELLLEFARDVLAAVEAGKLSEEELIEFIKSEAAVIRSEAEIEEL
B13: LC3A_28_810 (protein)
chain: SEADEIIEKIKKQAEELKNEEDLALIEVNISGSITVEEAKRIMDEVYREAKKLAEKKKVAVVVNLEEPVSQEVLDLIMERAEELEEEIPNVSVIIALPEE
B14: LC3A_free_46_2384 (protein)
chain: PKAVIDIDFGAMSLETAKEIAERIREAAREISEEYGVEVEVEVEIIKDEEGEYYLRVRITVRGEDKEKVKAAVDDLLDRIDEIAEEAGVSYIISVEFIDE
B15: LC3A_127_190 (protein)
chain: NLLEEALRGLREAQELLRKLQKGEISLEEAEKEAKRLLERLEAIAKALADDEVLKEMVEDAKKLLEQAEKAPEEEKKPLLEELFSELALAFALAAVKLEE
B16: LC3A_132_330 (protein)
chain: MEELYEKLKKEIEEKLEEAKENIDDLERVEELLEEIRELLREAEEKVEPEKFRELAEEAARRLEEIADAADAAGKEEVALLADGLRIEAEARAIRAEEKI
B17: LC3A_3_1522 (protein)
chain: MEEIKKEIIELLKEMGADEETIEKAKKAIKLLEERGYEKALKTLLEELKKLKNAPPETIAWFVKDVLELLEKKDLSEEEVTKEIKEIARTAKNDSEIEEL
B18: LC3A_28_1051 (protein)
chain: METEEALEAALAEARAAAAAGEEALITLTIDENDTEEDVELVLETMEEIAEIGKTLPSVTIIVDVDHKNKEEVTKKIADKGEELEKKYPNVTVIIALSEE
B19: LC3A_3_1554 (protein)
chain: MEELKEELLKELKEAGKSEEVLEAAKRAFDALIERGYYEAAKTLAEELREMLDLPDEIVLDFLNDVLELVETEDLDEEELIEEIKRLARIAKNEAEIEEL
B20: LC3A_3_1656 (protein)
chain: MEELIKETLEYLRKKGKSEEVLEAARAAMEALKEKGYEEALKTFAELLKELEHLSDEILLWFAEEVLRLVETEDINEEEMKERIKEIARTAKNAEEIEEL
B21: LC3A_28_1283 (protein)
chain: SELDESIEKALEEAKKAKEAGESAVIEIHIPGGATQEEIEKVIETLYEIAEILKDVKDQAIVISIDSGVKQEHIDKIADAAEEIEKKYPNVTVIIALDED
B22: LC3A_127_196 (protein)
chain: EKQKLLDEAIEIAEKLSELLDKPDFDLEEAKKLAEELKKVLEKLVKLDPSFQPALEDAEQLLELLEKMETLDEAEREEAREHMSMLVEGIIIELLSLSLK
B23: LC3A_free_8_2477 (protein)
chain: KREELVKKIVEGLDELEEKVREKAKELGLDELDILDLELLIGSAIAEVISLSDESPEEILKALKEGLEEIIEEAAEISEELAKVVKEESEKILKEAEKLM
B24: LC3A_141_368 (protein)
chain: TTLTITTDIGRASLDEIVAKMDELEEAALAAHRELGGGRVRVTVTITVKNLKTGETTTITEEFEADEEELELIMEGVLIEVASYALTEDAEVTVTVTLEG
B25: LC3A_3_1881 (protein)
chain: YDEEVKEAIEELKKAGASEETIEAFKKAAELLKERGYYEALKTLIEEVKELLSLSDELLLDFLEEVLDVIENEDLNEEELIKRIKEIARLTLNEGEIIEL
B26: LC3A_3_1398 (protein)
chain: MEELKKKILETLKKFGASEEVLKEAEKVLKALEKKGYEKAIKELLKEVEKLKNASDEILLDFFKDVLNYVENNDDSEEEVVKFIKEEARIALNEEEIEEL
B27: LC3A_free_39_2192 (protein)
chain: SAAERKAARDEILALAAEEGEEAKELAEELIELIGDELERLKELLELLKEAKEAGVDVKELLKEALALAKELKAQGKSREEIFEEVKALIRDRINLIPID
B28: LC3A_132_307 (protein)
chain: GEELAKKAIKVAKEALELAKTDDTKKEEILKLLDELKKLLEELAKKASPELAAKTFKEVMDILLEISRIASKKGWDEVADEAFALAALAAQLAADAEKKL
B29: LC3A_3_1603 (protein)
chain: SAELVEALLARLEAAGFPPEVLAAARELLEALAAKGFEEAARTAAEELLALRDAPPEVLLATLAELLEIVKTEDLDEEEVIERIREEFRVAALEGEIEEL

Over roughly 2,300 sequences, “median log2 fold change of GCK-ALFA target abundance (FLAG IP / Myc IP barcode read proportion)” has its median near 0.095; the lowest 2% begin near -0.47. The list shows a part of the results.

In the assay the target is MAP1LC3A, Q9H492. Kind of assay: median log2 fold change of GCK-ALFA target abundance (FLAG IP / Myc IP barcode read proportion) (log2 ratio); each designed protein is fused to an ALFA-tag nanobody in HEK293 cells to bring the named protein to FLAG-tagged glucokinase (GCK); Myc marks an untargeted standard; higher = target protein stabilised (more abundant). The conditions noted are these: target protein: 3xFLAG-MCP-GCK-ALFA reporter; HEK293 landing pad (RPLP). In outline:
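An ALFA-nanobody-fused binder library was recombined into HEK293 landing-pad cells and induced with 2 μg mL^−1 doxycycline. Cells were transfected with a plasmid expressing a FLAG-tagged target and a Myc-tagged standard. After 48 h, lysates underwent anti-FLAG and anti-Myc immunoprecipitation, and circular RNA barcodes were reverse transcribed, amplified and sequenced. Target abundance is the per-binder median log2 ratio of FLAG to Myc barcode read proportions. Barcodes needed ≥10^−7 proportion in both replicates, binders ≥3 barcodes per replicate, and a 10^−6 pseudocount was added; the two replicates were pooled.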
Take B1: the “median log2 fold change” value was 0.15.
Consider B2, for which the “median log2 fold change” value was -0.0317.
Take B3: the “median log2 fold change” value amounted to 0.187.
Consider B4, for which the “median log2 fold change” value came out at 0.101.
As for B5, the “median log2 fold change” value came out at 0.247.
As to B6, the “median log2 fold change” value was -0.18.
Consider B7, for which the “median log2 fold change” value was determined as 0.385.
The figure for B8 is 0.162; for B9 it is -0.054; for B10 it is -0.213.
For B11, the “median log2 fold change” value is -0.232.
B12: the “median log2 fold change” value was 0.281.
For B13, the “median log2 fold change” value was -0.105.
Turning to B14, the “median log2 fold change” value was 0.0164.
The figure for B15 is -0.0433; for B16 it is 0.136; for B17 it is 0.317.
With B18, the “median log2 fold change” value is -0.128.
As for B19, the “median log2 fold change” value is 0.225.
Consider B20, for which the “median log2 fold change” value amounted to 0.479.
As to B21, the “median log2 fold change” value is 0.0305.
For B22, the “median log2 fold change” value came out at 0.131.
For the molecule B23, the “median log2 fold change” value was -0.0519.
Consider B24, for which the “median log2 fold change” value is -0.781.
Turning to B25, the “median log2 fold change” value stood at 0.111.
On to B26, for which the “median log2 fold change” value came out at 0.0441.
In the case of B27, the “median log2 fold change” value turned out to be 0.281.
In the case of B28, the “median log2 fold change” value was determined as 0.268.
In the case of B29, the “median log2 fold change” value was 0.233.
